Source: the supplement of paper PMC12230231

What follows are sequences tested on SIVsab (simian immunodeficiency virus of sabaeus monkeys), single-cycle GFP reporter, in CRFK cells (assay: enrichment among uninfected cells over input (fold); higher = stronger restriction). Settings: library: human / rhesus combinations.
Procedure: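 Pools of CRFK cells expressing variants of the TRIM5α v1 loop were challenged with the single-cycle reporter, sorted by GFP and sequenced; mean of two replicates.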
For “MASGILVNVKEEVTCPICLELLTQPLSLDCGHSFCQACLTANHKKSMLDKGESSCPVCRISYQPENIRPNRHVANIVEKLREVKLSPEGQKVDHCARHGEKLLLFCQEDGKVICWLCERSQEHRGHHTFLTEEVAREYQVKLQAALEMLRQKQQEAEELEADIREEKASWKTQIQYDKTNVLADFEQLRDILDWEESNELQNLEKEEEDILKSLTNSETEMVQQTQSLRELISDLEHRLQGSVMELLQGVDGVIKRTENVTLKKPETFPKNQRRVFRAPDLKGMLEVFRELTDVRRYWVDVTVAPNNISCAVISEDKRQVSSPKPQIIYGAPGTRYTFPSFVNFNYCTGILGSQSITSGKHYWEVDVSKKTAWILGVCAGFQPDAMCNIEKNENYQPKYGYWVIGLEEGVKCSAFQDSSFHTPSVPFIVPLSVIICPDRVGVFLDYEACTVSFFNITNHGFLIYKFSHCSFSQPVFPYLNPRKCGVPMTLCSPSS [human TRIM5α, 330-340 = GAPGTRYTFPSFV]”, the enrichment was 0.161 ± 0.059.
With “MASGILVNVKEEVTCPICLELLTQPLSLDCGHSFCQACLTANHKKSMLDKGESSCPVCRISYQPENIRPNRHVANIVEKLREVKLSPEGQKVDHCARHGEKLLLFCQEDGKVICWLCERSQEHRGHHTFLTEEVAREYQVKLQAALEMLRQKQQEAEELEADIREEKASWKTQIQYDKTNVLADFEQLRDILDWEESNELQNLEKEEEDILKSLTNSETEMVQQTQSLRELISDLEHRLQGSVMELLQGVDGVIKRTENVTLKKPETFPKNQRRVFRAPDLKGMLEVFRELTDVRRYWVDVTVAPNNISCAVISEDKRQVSSPKPQIIYQARGTRYTFPTFVNFNYCTGILGSQSITSGKHYWEVDVSKKTAWILGVCAGFQPDAMCNIEKNENYQPKYGYWVIGLEEGVKCSAFQDSSFHTPSVPFIVPLSVIICPDRVGVFLDYEACTVSFFNITNHGFLIYKFSHCSFSQPVFPYLNPRKCGVPMTLCSPSS [human TRIM5α, 330-340 = QARGTRYTFPTFV]” the enrichment was 0.164 ± 0.082.
“MASGILVNVKEEVTCPICLELLTQPLSLDCGHSFCQACLTANHKKSMLDKGESSCPVCRISYQPENIRPNRHVANIVEKLREVKLSPEGQKVDHCARHGEKLLLFCQEDGKVICWLCERSQEHRGHHTFLTEEVAREYQVKLQAALEMLRQKQQEAEELEADIREEKASWKTQIQYDKTNVLADFEQLRDILDWEESNELQNLEKEEEDILKSLTNSETEMVQQTQSLRELISDLEHRLQGSVMELLQGVDGVIKRTENVTLKKPETFPKNQRRVFRAPDLKGMLEVFRELTDVRRYWVDVTVAPNNISCAVISEDKRQVSSPKPQIIYGARGTRFTFQSLTNFNYCTGILGSQSITSGKHYWEVDVSKKTAWILGVCAGFQPDAMCNIEKNENYQPKYGYWVIGLEEGVKCSAFQDSSFHTPSVPFIVPLSVIICPDRVGVFLDYEACTVSFFNITNHGFLIYKFSHCSFSQPVFPYLNPRKCGVPMTLCSPSS [human TRIM5α, 330-340 = GARGTRFTFQSLT]” showed an enrichment of 0.208 ± 0.14.
With “MASGILVNVKEEVTCPICLELLTQPLSLDCGHSFCQACLTANHKKSMLDKGESSCPVCRISYQPENIRPNRHVANIVEKLREVKLSPEGQKVDHCARHGEKLLLFCQEDGKVICWLCERSQEHRGHHTFLTEEVAREYQVKLQAALEMLRQKQQEAEELEADIREEKASWKTQIQYDKTNVLADFEQLRDILDWEESNELQNLEKEEEDILKSLTNSETEMVQQTQSLRELISDLEHRLQGSVMELLQGVDGVIKRTENVTLKKPETFPKNQRRVFRAPDLKGMLEVFRELTDVRRYWVDVTVAPNNISCAVISEDKRQVSSPKPQIIYGARGTRYTFPTLTNFNYCTGILGSQSITSGKHYWEVDVSKKTAWILGVCAGFQPDAMCNIEKNENYQPKYGYWVIGLEEGVKCSAFQDSSFHTPSVPFIVPLSVIICPDRVGVFLDYEACTVSFFNITNHGFLIYKFSHCSFSQPVFPYLNPRKCGVPMTLCSPSS [human TRIM5α, 330-340 = GARGTRYTFPTLT]” the enrichment was 0.324 ± 0.16.
“MASGILVNVKEEVTCPICLELLTQPLSLDCGHSFCQACLTANHKKSMLDKGESSCPVCRISYQPENIRPNRHVANIVEKLREVKLSPEGQKVDHCARHGEKLLLFCQEDGKVICWLCERSQEHRGHHTFLTEEVAREYQVKLQAALEMLRQKQQEAEELEADIREEKASWKTQIQYDKTNVLADFEQLRDILDWEESNELQNLEKEEEDILKSLTNSETEMVQQTQSLRELISDLEHRLQGSVMELLQGVDGVIKRTENVTLKKPETFPKNQRRVFRAPDLKGMLEVFRELTDVRRYWVDVTVAPNNISCAVISEDKRQVSSPKPQIIYQAPGTLYTFPTFTNFNYCTGILGSQSITSGKHYWEVDVSKKTAWILGVCAGFQPDAMCNIEKNENYQPKYGYWVIGLEEGVKCSAFQDSSFHTPSVPFIVPLSVIICPDRVGVFLDYEACTVSFFNITNHGFLIYKFSHCSFSQPVFPYLNPRKCGVPMTLCSPSS [human TRIM5α, 330-340 = QAPGTLYTFPTFT]” gave an enrichment of 0.25 ± 0.19.
With “MASGILVNVKEEVTCPICLELLTQPLSLDCGHSFCQACLTANHKKSMLDKGESSCPVCRISYQPENIRPNRHVANIVEKLREVKLSPEGQKVDHCARHGEKLLLFCQEDGKVICWLCERSQEHRGHHTFLTEEVAREYQVKLQAALEMLRQKQQEAEELEADIREEKASWKTQIQYDKTNVLADFEQLRDILDWEESNELQNLEKEEEDILKSLTNSETEMVQQTQSLRELISDLEHRLQGSVMELLQGVDGVIKRTENVTLKKPETFPKNQRRVFRAPDLKGMLEVFRELTDVRRYWVDVTVAPNNISCAVISEDKRQVSSPKPQIIYGAPGTLYTFQTFTNFNYCTGILGSQSITSGKHYWEVDVSKKTAWILGVCAGFQPDAMCNIEKNENYQPKYGYWVIGLEEGVKCSAFQDSSFHTPSVPFIVPLSVIICPDRVGVFLDYEACTVSFFNITNHGFLIYKFSHCSFSQPVFPYLNPRKCGVPMTLCSPSS [human TRIM5α, 330-340 = GAPGTLYTFQTFT]” the enrichment was 0.116 ± 0.021.

Same assay, conditions: library: insertions and deletions
“MASGILVNVKEEVTCPICLELLTQPLSLDCGHSFCQACLTANHKKSMLDKGESSCPVCRISYQPENIRPNRHVANIVEKLREVKLSPEGQKVDHCARHGEKLLLFCQEDGKVICWLCERSQEHRGHHTFLTEEVAREYQVKLQAALEMLRQKQQEAEELEADIREEKASWKTQIQYDKTNVLADFEQLRDILDWEESNELQNLEKEEEDILKSLTNSETEMVQQTQSLRELISDLEHRLQGSVMELLQGVDGVIKRTENVTLKKPETFPKNQRRVFRAPDLKGMLEVFRELTDVRRYWVDVTVAPNNISCAVISEDKRQVSSPGTRYQTFVNFNYCTGILGSQSITSGKHYWEVDVSKKTAWILGVCAGFQPDAMCNIEKNENYQPKYGYWVIGLEEGVKCSAFQDSSFHTPSVPFIVPLSVIICPDRVGVFLDYEACTVSFFNITNHGFLIYKFSHCSFSQPVFPYLNPRKCGVPMTLCSPSS [human TRIM5α, 9-codon deletion at 324]” was tested, and the enrichment was 0.463 ± 0.12.
In the case of “MASGILVNVKEEVTCPICLELLTQPLSLDCGHSFCQACLTANHKKSMLDKGESSCPVCRISYQPENIRPNRHVANIVEKLREVKLSPEGQKVDHCARHGEKLLLFCQEDGKVICWLCERSQEHRGHHTFLTEEVAREYQVKLQAALEMLRQKQQEAEELEADIREEKASWKTQIQYDKTNVLADFEQLRDILDWEESNELQNLEKEEEDILKSLTNSETEMVQQTQSLRELISDLEHRLQGSVMELLQGVDGVIKRTENVTLKKPETFPKNQRRVFRAPDLKGMLEVFRELTDVRRYWVDVTVAPNNISCAVISEDKRQVSSPKPQIIYGARTFVNFNYCTGILGSQSITSGKHYWEVDVSKKTAWILGVCAGFQPDAMCNIEKNENYQPKYGYWVIGLEEGVKCSAFQDSSFHTPSVPFIVPLSVIICPDRVGVFLDYEACTVSFFNITNHGFLIYKFSHCSFSQPVFPYLNPRKCGVPMTLCSPSS [human TRIM5α, 5-codon deletion at 333]”, the enrichment is reported as 0.753 ± 0.69.
“MASGILVNVKEEVTCPICLELLTQPLSLDCGHSFCQACLTANHKKSMLDKGESSCPVCRISYQPENIRPNRHVANIVEKLREVKLSPEGQKVDHCARHGEKLLLFCQEDGKVICWLCERSQEHRGHHTFLTEEVAREYQVKLQAALEMLRQKQQEAEELEADIREEKASWKTQIQYDKTNVLADFEQLRDILDWEESNELQNLEKEEEDILKSLTNSETEMVQQTQSLRELISDLEHRLQGSVMELLQGVDGVIKRTENVTLKKPETFPKNQRRVFRAPDLKGMLEVFRELTDVRRYWVDVTVAPNNISCAVISEDKRQVSSPKPQYQTFVNFNYCTGILGSQSITSGKHYWEVDVSKKTAWILGVCAGFQPDAMCNIEKNENYQPKYGYWVIGLEEGVKCSAFQDSSFHTPSVPFIVPLSVIICPDRVGVFLDYEACTVSFFNITNHGFLIYKFSHCSFSQPVFPYLNPRKCGVPMTLCSPSS [human TRIM5α, 9-codon deletion at 327]” showed an enrichment of 1.15 ± 0.43.
“MASGILVNVKEEVTCPICLELLTQPLSLDCGHSFCQACLTANHKKSMLDKGESSCPVCRISYQPENIRPNRHVANIVEKLREVKLSPEGQKVDHCARHGEKLLLFCQEDGKVICWLCERSQEHRGHHTFLTEEVAREYQVKLQAALEMLRQKQQEAEELEADIREEKASWKTQIQYDKTNVLADFEQLRDILDWEESNELQNLEKEEEDILKSLTNSETEMVQQTQSLRELISDLEHRLQGSVMELLQGVDGVIKRTENVTLKKPETFPKNQRRVFRAPDLKGMLEVFRELTDVRRYWVDVTVAPNNISCAVISEDKRQVSSPKPQIIYGARGTRYQTFVNFNYCYCTGILGSQSITSGKHYWEVDVSKKTAWILGVCAGFQPDAMCNIEKNENYQPKYGYWVIGLEEGVKCSAFQDSSFHTPSVPFIVPLSVIICPDRVGVFLDYEACTVSFFNITNHGFLIYKFSHCSFSQPVFPYLNPRKCGVPMTLCSPSS [human TRIM5α, 2-codon duplication at 344]” gave an enrichment of 0.759 ± 0.49.
Work on “MASGILVNVKEEVTCPICLELLTQPLSLDCGHSFCQACLTANHKKSMLDKGESSCPVCRISYQPENIRPNRHVANIVEKLREVKLSPEGQKVDHCARHGEKLLLFCQEDGKVICWLCERSQEHRGHHTFLTEEVAREYQVKLQAALEMLRQKQQEAEELEADIREEKASWKTQIQYDKTNVLADFEQLRDILDWEESNELQNLEKEEEDILKSLTNSETEMVQQTQSLRELISDLEHRLQGSVMELLQGVDGVIKRTENVTLKKPETFPKNQRRVFRAPDLKGMLEVFRELTDVRRYWVDVTVAPNNISCAVISEDKRQVSSPKPQIIYQIIYGARGTRYQTFVNFNYCTGILGSQSITSGKHYWEVDVSKKTAWILGVCAGFQPDAMCNIEKNENYQPKYGYWVIGLEEGVKCSAFQDSSFHTPSVPFIVPLSVIICPDRVGVFLDYEACTVSFFNITNHGFLIYKFSHCSFSQPVFPYLNPRKCGVPMTLCSPSS [human TRIM5α, 4-codon duplication at 326]” yielded an enrichment of 0.205 ± 0.048.
Work on “MASGILVNVKEEVTCPICLELLTQPLSLDCGHSFCQACLTANHKKSMLDKGESSCPVCRISYQPENIRPNRHVANIVEKLREVKLSPEGQKVDHCARHGEKLLLFCQEDGKVICWLCERSQEHRGHHTFLTEEVAREYQVKLQAALEMLRQKQQEAEELEADIREEKASWKTQIQYDKTNVLADFEQLRDILDWEESNELQNLEKEEEDILKSLTNSETEMVQQTQSLRELISDLEHRLQGSVMELLQGVDGVIKRTENVTLKKPETFPKNQRRVFRAPDLKGMLEVFRELTDVRRYWVDVTVAPNNISCAVISEDKRQVSSPKPQIITFVNFNYCTGILGSQSITSGKHYWEVDVSKKTAWILGVCAGFQPDAMCNIEKNENYQPKYGYWVIGLEEGVKCSAFQDSSFHTPSVPFIVPLSVIICPDRVGVFLDYEACTVSFFNITNHGFLIYKFSHCSFSQPVFPYLNPRKCGVPMTLCSPSS [human TRIM5α, 9-codon deletion at 329]” yielded an enrichment of 0.905 ± 0.04.

± gives the standard deviation of the averaged measurements. Restriction of a single-cycle SIVsab GFP reporter by TRIM5α v1-loop variants in CRFK cells. Human variants: read share among cells still uninfected after two challenges over input, higher = gained restriction. Rhesus variants: share among infected cells over input, higher = lost restriction. Reporter dose not given per row. No active / inactive call per row; the paper calls a change when both replicates lie above its controls (mean + 2 SD of stop or wild-type variants, or the top frameshift score). Residues outside the varied loop are taken from Swiss-Prot. The paper reads the human single-substitution scores as noise; they and the rhesus combinations repeat poorly (rank correlation 0.3 to 0.4), indel scores repeat only for the top variants, rhesus substitutions well (0.9).
